# Paper PMC12136788
# The other results are listed elsewhere or left out.
# B1: chr1:114568131:114568247:-|CDS|ENSG00000116752|unk|total|mutant (ssRNA)
# RNA: GGGAGUUCUACAGUCCGACGAUCUUCCCGUUGGGUAUCCCUGGUCAGUAAGAAUUAUGAGAUUGAACGGACUAUUGUUCAGCCCGAAAAUGAAAUCUAUCAAAUUAAGCAGCAACAUGGAGAGGCAAACAAAGAAAACAUCCGCAACAGAGGAUUGAGCAUCA
# B2: chr3:98799561:98799662:-|CDS|ENSG00000057019|msi1|FALSE|unique (ssRNA)
# RNA: GGGAGUUCUACAGUCCGACGAUCUUCAGUUGGUCAGCCCUCCACAUCCACUUUCAAGGCUACGGGGAACCAACCUCCCCCACUAGUGGGAACUUACAAUACACUUCUCUCCAGGACUGACAGCUGCUCCUCAGCCCAGGCCCACAACAGAGGAUUGAGCAUCA
# B3: chr12:51291590:51292344:-|CDS|ENSG00000110934|control|control|control (ssRNA)
# RNA: GGGAGUUCUACAGUCCGACGAUCUUCACCCACCAGCCCUAGGGCCUCCUUGGGGACUGGGACUGCAAGUCCUAGGACCUCCCUAGAGGUCUCUCCUAAUCCAGAACCACCAGAGAAGCCAGUAAGAACUCCUGAGGCCAAAGACAACAGAGGAUUGAGCAUCA
# B4: ENSG00000070961:be:win_3401|CDS|ENSG00000070961|bound_else_gene|NA|bound_elsewhere_windowed (ssRNA)
# RNA: GGGAGUUCUACAGUCCGACGAUCAACCGGAAUCAAGAAGUUCGAUUCACAACUUUAUGACACAUCCUGAGUUUAGGAUAGAAGAUUCAGAGCCUCAUAUCCCCCUUAUUGAUGACACUGAUGCCGAAGAUGAUGCUCCUACAACAACAGAGGAUUGAGCAUCA
# B5: chr17:57839567:57839672:-|3pUTR|ENSG00000181610|unk|FALSE|unique (ssRNA)
# RNA: GGGAGUUCUACAGUCCGACGAUCGGGUUGUCACAAAGCUCAGUAUCAUGGUUUGACAGAAGCAGUUAUGUGAACUUUUAUGUUAGGACAUUACUAAAUAAAGAAUUCCCUAGCUGCUUAUAAAGUAAAUUUACUUUGAAUUGUCAACAGAGGAUUGAGCAUCA
# B6: chr6:35869508:35869609:-|CDS|ENSG00000096063|unk|total|mutant (ssRNA)
# RNA: GGGAGUUCUACAGUCCGACGAUCGACACCAUGGUGUGCCAGUCUUCCUCAACUGCCGGUCAGUCAUUCAGUGAACAACACAUCCGCCAACUUCAAGAAAGCAUUCGGGCAGAGAUACCCUGUGAAGAUGAACAAGAGCAAGAACAACAGAGGAUUGAGCAUCA
# B7: chr19:4839056:4839157:-|3pUTR|ENSG00000105355|msi1|total|mutant (ssRNA)
# RNA: GGGAGUUCUACAGUCCGACGAUCUCUAUAAUGCAGCUGUGCUCUGGAGUCCUCAACCCGGGGCUCAUUUCAAACUUAUUUUCCCGCCACUCCUCCCAGCUCUUCUGUGCUGUCCACUUGGGAAGCUAAGGCUCUCAAAACGGGCAACAGAGGAUUGAGCAUCA
# B8: chr11:85958428:85958534:-|3pUTR|ENSG00000073921|unk|FALSE|unique (ssRNA)
# RNA: GGGAGUUCUACAGUCCGACGAUCAGAAACAAUAACUGAAAUUAACUUUUCUUUUUUUAAAAAAAAUUAUAUUCAGUUUGCAGUAGACAUUCCUUAAGUAUUUGUAUUUAUUUAUGAUUAUCAAUUUUACAUAACAUUAAUAUUCAACAGAGGAUUGAGCAUCA
# B9: ENSG00000181852:stop:overlap|stop_codon|ENSG00000181852|stop_codon|NA|stop_codon (ssRNA)
# RNA: GGGAGUUCUACAGUCCGACGAUCGUGUCAACCCCAACCUUCAGAACCUGGAGGAGACAAUUGAAUACAACGAGAUCCUAGAGUAGCUUACAACCCAGAGAAGAGGAGGCAGAGUGCAAGUCCAGGAAAGUGAUCUCUAAAAUGCAACAGAGGAUUGAGCAUCA
# B10: chr17:44253117:44253371:-|CDS|ENSG00000004939|control|control|control (ssRNA)
# RNA: GGGAGUUCUACAGUCCGACGAUCCAAACCUGAGCGCAAGAUGGUCAAGGGCUCCGGCUUCCACCUGGACCUGCUGCUGGUAGUAGGCAUGGGUGGGGUGGCCGCCCUCUUUGGGAUGCCCUGGCUCAGUGCCACCACCGUGCGCAACAGAGGAUUGAGCAUCA
# B11: chr4:48498090:48498191:-|3pUTR|ENSG00000075539|msi1|total|mutant (ssRNA)
# RNA: GGGAGUUCUACAGUCCGACGAUCAGGAAGCCUGAAGACUGACUACCAAAACAUGCAAUAUACUUAUUCACUGUCUAAGUCUGCCGUAUAACAUGAACUGGAGUCUCUAUCCUUUUCUAAAAUCGCAUUUUGUAAGAAAAGAAACAACAGAGGAUUGAGCAUCA
# B12: chr12:46358264:46358384:-|3pUTR|ENSG00000134294|msi1|FALSE|unique (ssRNA)
# RNA: GGGAGUUCUACAGUCCGACGAUCAAUGUGAUCUAGUGUAAUGGAAGACCUUUGAGAACCUGGGUGUAUUAACUUUGUGUAUAUAGUGUAAAUAUCCCCACUGUACUGUUAGAGGCCAACAAUUCUAGUAUGGCUUGUUGGCAACAACAGAGGAUUGAGCAUCA
# B13: ENSG00000124766:be:win_3051|3pUTR|ENSG00000124766|bound_else_gene|NA|bound_elsewhere_windowed (ssRNA)
# RNA: GGGAGUUCUACAGUCCGACGAUCAGGGCUAGAGUUUUAACUUUUAAUUUUUUAUAUUUAAAUGUAGACUUUUGACACUUUUAAAAAACAAAAAAAGACAAGAGAGAUGAAAACGUUUGAUUAUUUUCUCAGUGUAUUUUUGUACAACAGAGGAUUGAGCAUCA
# B14: chr15:93024873:93024975:+|3pUTR|ENSG00000173575|unk|FALSE|unique (ssRNA)
# RNA: GGGAGUUCUACAGUCCGACGAUCGGUCCAGCUCUGAUUCGGGUCACCACUCCUGCACUUUGGCACCCCAUCCCAUUCCAGCCUAGUUCUGGCCUCCCACUUUGACGGGCACUUGGAGGAGGAGCUGACUGUGUGUGUACCAGCCAACAGAGGAUUGAGCAUCA
# Target: MSI1 full-length (mouse, UniProt Q61474 1-362)
# Sequence of UniProt Q61474 (Q61474 whole entry): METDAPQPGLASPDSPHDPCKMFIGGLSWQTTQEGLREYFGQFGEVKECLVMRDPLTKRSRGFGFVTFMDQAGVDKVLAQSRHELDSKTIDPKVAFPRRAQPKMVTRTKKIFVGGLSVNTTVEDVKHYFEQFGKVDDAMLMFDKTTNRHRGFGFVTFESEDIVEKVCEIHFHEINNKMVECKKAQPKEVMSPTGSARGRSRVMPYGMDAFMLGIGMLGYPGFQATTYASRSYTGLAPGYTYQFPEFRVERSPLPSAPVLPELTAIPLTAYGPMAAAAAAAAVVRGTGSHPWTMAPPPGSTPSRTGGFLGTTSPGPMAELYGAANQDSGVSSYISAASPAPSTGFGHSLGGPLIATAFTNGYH
# Assay: nsRBNS (natural sequence RNA bind-n-seq); RBNS binding buffer (assumed for nsRBNS): 25 mM Tris pH 7.5, 150 mM KCl, 3 mM MgCl2, 0.01% Triton X-100, 500 ug/ml BSA, 20 U/ml SUPERase-In, 4 C; UNK is unkempt and MSI1 is Musashi-1; names of the RNAs are library labels; protein concentration not given here; high values mean tight binding
row,Binder,binding signal [enrichment R]
1,B1,0.6
2,B2,0.51
3,B3,0.477
4,B4,0.458
5,B5,0.599
6,B6,0.355
7,B7,0.586
8,B8,4.67
9,B9,0.586
10,B10,0.251
11,B11,0.265
12,B12,3.77
13,B13,7.13
14,B14,1.96
